The campaign covered roughly 52,000 compounds. About 1,700 (3.3%) were called active. Cut-off read from the data, not from the text of the source: active = survival mostly below about 52% (no sharp cut-off); inactive = mostly above about 56%. This is one part of the list.
Each compound was assayed on Wild type (assay: growth inhibition of S. aureus wild type versus tarO mutant, primary screen, teichoic acid synthesis inhibitors, RN4220, OD600 (AID 463173)). Conditions: S. aureus RN4220 wild type/DeltatarO growth, OD600, 18 h, active compounds read low, screened at 18.75 µg/mL (by protocol).

How did the survival turn out when `COC(=O)c1ccc(NC(=O)CC2C(=O)N(c3ccc(Cl)cc3)C(=O)N2Cc2cccs2)cc1` (centres undefined) was run?
The survival was inactive: 66%.

Which survival does the source give for `CCc1ccc(NCc2cc3cc4c(cc3n(CC(=O)Nc3ccc(Cl)cc3)c2=O)OCO4)cc1` here?
The survival was inactive: 131%.

With `COc1ccccc1CCNC(=O)c1ccc2c(c1)c(C)c(C)n2C` as the compound, how does the survival read?
Its survival is inactive: 66%.

With `COc1ccc(NC(=O)CSc2ncc(-c3ccc(Cl)cc3)[nH]2)cc1OC` as the compound, how does the survival read?
The survival was inactive: 99%.

Which survival does the source give for `Cc1cc(S(=O)(=O)Nc2cccc(C(=O)O)c2)c(C)c(S(=O)(=O)c2ccccc2)c1` here?
Its survival is inactive: 74%.

How did the survival turn out when `Cc1nnc(SCCCN2C(=O)c3ccccc3C2=O)o1` was run?
The survival was inactive: 105%.

With `COC(=O)c1cc(NC(=O)CCc2c(C)nc3c4c(C)cc(C)nc4nn3c2C)cc(C(=O)OC)c1` as the compound, how does the survival read?
The survival was inactive: 83%.

`CCOC(=O)c1sc(N2C(=O)c3oc4cc(C)c(C)cc4c(=O)c3C2c2cccc(O)c2)nc1C` (centres undefined) was tested. Which survival did it give?
The survival was inactive: 73%.

Which survival does the source give for `CN(C)C(=O)c1c(N)no[n+]1[O-]` here?
The survival was inactive: 101%.

How did the survival turn out when `CCOC(=O)c1sc2ccccc2c1S(=O)(=O)Nc1ccc(N(C)C)cc1` was run?
The survival was inactive: 131%.

Which survival does the source give for `S=c1[nH]nc(NNc2ccccc2)n1Nc1ccccc1` here?
Its survival is inactive: 108%.

For `CC1CCN(c2nc3c(S(=O)(=O)c4ccccc4)nnn3c3ccsc23)CC1`, which survival is on record?
Its survival is inactive: 116%.

Which survival does the source give for `CCOC(=O)Cn1cnc2sc(C)c(C)c2c1=O` here?
The survival was inactive: 100%.

With `CCc1ccccc1NC(=O)c1cc(S(=O)(=O)N(CC)c2ccccc2)ccc1F` as the compound, how does the survival read?
The survival was inactive: 75%.

`COc1ccccc1NC(=O)CCCOc1cc(=O)n(C)c2ccccc12` was tested. Which survival did it give?
The survival was inactive: 116%.

With `COc1ccc(-c2nc(C)c(CCNC(=O)C(=O)Nc3cccc(F)c3)s2)cc1OC` as the compound, how does the survival read?
The survival was inactive: 51%.

Which survival does the source give for `COc1ccc(CCNC(=O)c2nn(-c3ccc(C)cc3)c(=O)c3c2c2ccccc2n3C)cc1OC` here?
The survival was inactive: 76%.

For `O=C(CC1N=C2c3ccccc3N=C(SCC(=O)Nc3cccc(C(F)(F)F)c3)N2C1=O)NCc1cccs1` (centres undefined), which survival is on record?
The survival was inactive: 54%.

With `CCc1ccccc1NC(=O)Nc1nnc(N2CCCC2)s1` as the compound, how does the survival read?
Its survival is inactive: 88%.

How did the survival turn out when `CCc1ccc(CN(Cc2ccco2)C(=O)c2ccccc2Cl)cc1` was run?
Its survival is inactive: 81%.

How did the survival turn out when `CCOC(=O)CCn1nc(-c2ccc(C)cc2)c2ccccc2c1=O` was run?
The survival was inactive: 75%.

`Cc1ccc(C)c(Cn2c(=O)n(Cc3ccccc3)c(=O)c3c(C)c(C)sc32)c1` was tested. Which survival did it give?
Its survival is inactive: 90%.

For `CCn1nc(C)c(Oc2ccccc2O)c1C`, which survival is on record?
Its survival is inactive: 116%.

For `COc1cc(NC(=O)Cn2c(=O)n(Cc3ccccc3OC)c(=O)c3cccnc32)cc(OC)c1`, which survival is on record?
The survival was inactive: 147%.

`Cc1ccc(C(=O)COC(=O)c2cc(-c3ccccc3)nc3ccccc23)cc1C` was tested. Which survival did it give?
Its survival is inactive: 91%.

`Cc1ccc(C)c(N2CCN(S(=O)(=O)c3ccc4oc(=O)c5ncn(C)c5c4c3)CC2)c1` was tested. Which survival did it give?
Its survival is inactive: 81%.

With `O=C(CSC1=NCCS1)N1CCN(c2ccc(Cl)cc2)CC1` as the compound, how does the survival read?
Its survival is inactive: 116%.

Which survival does the source give for `COc1ccc(NC(=O)CCN2CCN(c3cccc(Cl)c3)CC2)cc1` here?
The survival was inactive: 92%.

`Cc1ccc(S(=O)(=O)c2nnn3c2nc(NCc2ccc(F)cc2)c2sccc23)cc1` was tested. Which survival did it give?
The survival was inactive: 117%.

How did the survival turn out when `CCCNC(=O)c1ccc2c(c1)N(Cc1cccc(C)c1)C(=O)c1ccccc1S2` was run?
Its survival is inactive: 95%.

Which survival does the source give for `O=C(Cn1c(C(=O)N2CCN(C(=O)c3ccco3)CC2)cc2sccc21)c1ccccc1` here?
Its survival is inactive: 118%.

Which survival does the source give for `CCOc1ccc(OCC)c(NC(=O)C2CCCN(S(=O)(=O)c3ccc4c(c3)oc(=O)n4C)C2)c1` (centres undefined) here?
Its survival is inactive: 96%.

`CCOc1ccc(CNC(=O)Cn2c(=O)c3cccn3c3ccc(F)cc32)cc1` was tested. Which survival did it give?
The survival was inactive: 102%.

For `CCN1c2ccccc2-n2cccc2C12CCN(C(=O)Nc1ccccc1C(F)(F)F)CC2`, which survival is on record?
The survival was inactive: 75%.

For `CC(=O)Nc1ccc(Nc2ncnc3c2c(-c2ccccc2)cn3-c2ccccc2)cc1`, which survival is on record?
Its survival is inactive: 140%.

Which survival does the source give for `O=C(Nc1ccc(F)c(Cl)c1)N1CCN(C(=O)c2nsc3ccccc23)CC1` here?
Its survival is inactive: 70%.

How did the survival turn out when `Cc1cc(C)cc(-n2c(SCC(=O)N3CCc4ccccc43)nc3c([nH]c4ccccc43)c2=O)c1` was run?
Its survival is active: 14%.

`C#CCNc1c2c(nc3nnnn13)CCCC2` was tested. Which survival did it give?
The survival was inactive: 104%.

For `Cc1cccc(-c2nc(SCCCOc3ccccc3Cl)n3[nH]c(=O)cc3n2)c1`, which survival is on record?
Its survival is inactive: 65%.

For `CCn1c(C(=O)N2CCC(C(=O)N3CCN(c4cccc(C)c4C)CC3)CC2)cc2sccc21`, which survival is on record?
Its survival is inactive: 59%.

With `CCOc1ccc2nc(N3CCN(C(=O)CS(=O)(=O)c4ccc(F)cc4)CC3)sc2c1` as the compound, how does the survival read?
The survival was inactive: 69%.

With `CC(=O)N=c1cccc(NC(C)=O)n1O` as the compound, how does the survival read?
The survival was inactive: 93%.

For `Cn1nc(C(=O)N2CCN(c3ccc(Cl)cc3)CC2)c2c1-c1ccccc1SC2`, which survival is on record?
The survival was inactive: 88%.

With `Cc1ccc(NC(=O)Cn2nnnc2-c2ccccc2N)cc1` as the compound, how does the survival read?
Its survival is inactive: 79%.

`CCN(CC)C(=O)CSc1nc2cccnc2n1C` was tested. Which survival did it give?
The survival was inactive: 104%.

With `O=c1c2cc3c(cc2nc2sc(Nc4ccc(F)cc4F)nn12)OCO3` as the compound, how does the survival read?
Its survival is inactive: 69%.

For `Cc1ccc(C)c(N2CCN(c3ncnc4c3nc3n4CCCCC3)CC2)c1`, which survival is on record?
The survival was inactive: 63%.

Which survival does the source give for `O=C(C1CCCN(S(=O)(=O)c2cccs2)C1)N1CCN(c2cccc(Cl)c2)CC1` (centres undefined) here?
Its survival is inactive: 88%.

`NC(=O)CSc1nc2c(oc3ccccc32)c(=O)n1-c1ccccc1F` was tested. Which survival did it give?
The survival was inactive: 57%.

`c1ccc(CNc2nc3ccccc3c3nc(-c4ccccc4)nn23)cc1` was tested. Which survival did it give?
The survival was inactive: 67%.

How did the survival turn out when `Cn1c(=O)c2nc(SCC(=O)Nc3cc(Cl)ccc3Cl)n(C)c2n(C)c1=O` was run?
The survival was inactive: 67%.

How did the survival turn out when `COc1cccc(CNC(=O)CSc2ccc(-c3sc(-c4ccccc4)nc3C)nn2)c1` was run?
The survival was inactive: 42%.

For `COc1ccc(Cl)cc1NC(=O)N1CCC(CN2CCc3ccccc3C2)CC1`, which survival is on record?
Its survival is inactive: 129%.

`CCOc1ccc(C(=O)NCC(c2ccco2)S(=O)(=O)c2ccc(C)cc2)cc1` (centres undefined) was tested. Which survival did it give?
Its survival is inactive: 85%.

For `O=C(Cn1cc(S(=O)(=O)Cc2ccc(F)cc2)c2ccccc21)NCCc1ccccc1`, which survival is on record?
The survival was inactive: 85%.

With `Cc1ccc(NC(=O)c2ccc(NC(=O)N3CCSc4ncccc43)cc2)cc1Cl` as the compound, how does the survival read?
The survival was inactive: 129%.

For `O=C(NCc1ccccc1)C(c1ccc(F)cc1)N(Cc1ccco1)C(=O)c1ccccn1` (centres undefined), which survival is on record?
Its survival is inactive: 104%.

`O=C(NC1CCCCC1)O/N=C/c1ccc(F)cc1` was tested. Which survival did it give?
Its survival is inactive: 101%.

Which survival does the source give for `CCc1ccc(-n2nc3cc(C)c(NC(=O)c4cc(Cl)ccc4OC)cc3n2)cc1` here?
Its survival is inactive: 64%.

How did the survival turn out when `Cc1ccc2c(=O)cc(C(=O)Nc3sc4c(c3C(=O)NCc3ccco3)CCC4)oc2c1C` was run?
Its survival is inactive: 87%.

How did the survival turn out when `COc1ccc(OCCn2c(C3CC(=O)N(c4ccc(F)cc4)C3)nc3ccccc32)cc1` (centres undefined) was run?
The survival was inactive: 84%.

`COc1ccc(Nc2cc(C(=O)NCCc3ccccc3)c3ccccc3n2)cc1OC` was tested. Which survival did it give?
Its survival is inactive: 90%.

For `COc1ccc2[nH]c(=O)c(CN(Cc3ccco3)C(=S)NC3CCCCC3)cc2c1`, which survival is on record?
Its survival is inactive: 118%.

With `CCC(C)NC(=O)Cn1c(=O)n(Cc2ccc(C(=O)NCCCOC)cc2)c(=O)c2ccccc21` (centres undefined) as the compound, how does the survival read?
The survival was inactive: 72%.

Which survival does the source give for `Cc1ccc(NC(=O)c2c(N3CCCC3=O)c3cc(C)ccc3n2C)c(C)c1` here?
Its survival is inactive: 127%.

For `CCCN(C(=O)Cn1ncc2c(=O)oc3ccccc3c21)c1cccc(C)c1`, which survival is on record?
The survival was inactive: 79%.

Which survival does the source give for `Cc1ccc(CNC(=O)Cn2ncc3c(C)n(Cc4ccc(Cl)cc4)c(C)c3c2=O)cc1` here?
The survival was inactive: 84%.

How did the survival turn out when `COc1ccccc1Nc1cc(C)nc2nc(-c3ccccc3)nn12` was run?
Its survival is active: 14%.

With `CCCCOC(=O)c1ccc(NS(=O)(=O)c2c(C)nc3scc(C)n3c2=O)cc1` as the compound, how does the survival read?
The survival was inactive: 30%.

For `Cc1ccc(Cl)c2sc(N3CCN(C(=O)C4CC4)CC3)nc12`, which survival is on record?
The survival was inactive: 76%.

`CC(C)c1ccc(NC(=O)CSc2ncc3c(n2)-c2ccccc2N(C)S3(=O)=O)cc1` was tested. Which survival did it give?
The survival was inactive: 90%.

How did the survival turn out when `COC(=O)c1c(NC(=O)c2ccc(S(=O)(=O)N3CCCC(C)C3)cc2)sc2c1CCN(C(C)C)C2` (centres undefined) was run?
Its survival is inactive: 95%.

`CSc1ccc(CNCc2c(C(=O)O)c(C)n(Cc3ccc(F)cc3Cl)c2C)cc1` was tested. Which survival did it give?
The survival was inactive: 87%.

`Cc1ccccc1Cn1cc(S(=O)(=O)c2ccc(Cl)cc2)c(=O)c2cc3c(cc21)OCO3` was tested. Which survival did it give?
The survival was inactive: 91%.

For `Cc1ccccc1CNC(=O)c1c(C)oc2c1C1=NCCN1C=N2`, which survival is on record?
The survival was inactive: 85%.

How did the survival turn out when `Cc1c(NC(=O)c2nc3ccccc3n(C)c2=O)cccc1[N+](=O)[O-]` was run?
The survival was inactive: 84%.

`COc1cccc(N2CCN(C(=O)C3CCCN(S(=O)(=O)c4ccc(Br)s4)C3)CC2)c1` (centres undefined) was tested. Which survival did it give?
The survival was inactive: 81%.

For `O=C(Cn1c(=O)n2nc(-c3ccccc3)nc2c2ccccc21)Nc1ccccc1C(F)(F)F`, which survival is on record?
The survival was inactive: 90%.

Which survival does the source give for `Nc1ncc(S(=O)(=O)NCc2cccc(Cl)c2)cn1` here?
Its survival is inactive: 76%.

With `O=C1[C@@H]2CSC(c3ccc(F)cc3)N2C(=O)N1c1ccc(Cl)cc1` (some centres undefined) as the compound, how does the survival read?
The survival was inactive: 79%.

How did the survival turn out when `CCc1ccc(-n2c(=O)c3c4c(sc3n(Cc3ccc(F)cc3)c2=O)CCCC4)cc1` was run?
Its survival is inactive: 56%.

How did the survival turn out when `COc1ccc(CNC(=O)c2cccc(N3CCCS3(=O)=O)c2)cc1` was run?
The survival was inactive: 68%.

Which survival does the source give for `Cc1ccc2oc(=O)c3cnn(CC(=O)NCc4ccccc4Cl)c3c2c1` here?
The survival was inactive: 87%.

For `COc1cccc(C(=O)N2CC(C)OC(C)C2)c1` (centres undefined), which survival is on record?
Its survival is inactive: 107%.

Which survival does the source give for `Cc1ccc(-c2nc(CCNC(=O)C(=O)Nc3ccc(C)c(C)c3)cs2)cc1` here?
The survival was active: -3%.

`Cc1ccc(C)n1-c1nnc(N2CCC(C(=O)NCc3ccccc3Cl)CC2)s1` was tested. Which survival did it give?
Its survival is inactive: 94%.

For `COc1ccc(S(=O)(=O)N(Cc2nc(-c3ccc(C)cc3)no2)C2CCCCC2)cc1`, which survival is on record?
Its survival is inactive: 98%.

How did the survival turn out when `CCC(c1nnnn1Cc1ccccc1)N1CCN(c2cccc(C)c2C)CC1` (centres undefined) was run?
The survival was inactive: 98%.

With `CC(=O)c1cc(-c2ccc(F)cc2)n(CCC(=O)NCc2ccccc2C)c1C` as the compound, how does the survival read?
The survival was inactive: 75%.

Source: PubChem BioAssay AID463173 (ICCB-Longwood Screening Facility, Harvard Medical School, 2010)
